Results from PubChem BioAssay AID624418 (National Center for Advancing Translational Sciences (NCATS), 2012).
In all, about 410,000 compounds went through this assay and about 530 (0.13%) were called active. Inconclusive means that the source gave no clear call. Such entries were picked first, then a sample of the others. Calls follow the shape of the dose curve; as a rule, active = well fitted inhibition curve with a large enough effect; inconclusive = small, poorly fitted or top-dose-only effect, or another doubt; inactive = no such curve, though single readings can be large or run the other way. A potency beside an inconclusive call is a rough fit, not a confirmed value.

Experiment: qHTS of GLP-1 Receptor Inverse Agonists: Cytotox Screen
Conditions: HEK293 cAMP-luciferase reporter cells, luminescence, 24 h; activity change, negative = inhibition: at 38.3 µM (top of the series) unless noted
Method in brief: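 Seeding density was 200 cells/uL; after overnight-length (12 h) culture, 23 nL compounds went on for 24 h at 37 °C. Readout used a luciferase detection reagent, luminescence taken after 12 min at room temperature.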
% is scaled to controls: 0 for no effect and ±100 for the full control effect; potency is read from the fitted curve at half-maximal effect.

Structure (SMILES) | activity change, negative = inhibition | Potency
Cc1c(NC(=O)Cc2ccc(Cl)cc2)cccc1-c1nc2cccnc2s1 | inactive: -0.496% | –
CCOC(=O)C1CCCN(c2nc3ccccc3nc2C(C#N)C(=O)OC(C)C)C1 (configuration not stated) | inactive: 101% | –
COc1cc(OC)cc(C(=O)NNC(=O)c2ccccn2)c1 | – | inconclusive: 28.2 µM [inhibitor, single point]
CC(C)(C)C(=O)Nc1sc2c(c1-c1nc3ccccc3[nH]1)CCCC2 | inactive: -0.55% | –
S=C(c1cn(CCOc2cccc3ccccc23)c2ccccc12)N1CCCC1 | – | inconclusive: 22.4 µM [inhibitor, single point]
CCC(NC(=O)C1CCCC1)c1ccccc1 (configuration not stated) | inactive: -2.32% | –
Cc1ccccc1S(=O)Cc1ccc(C(=O)NCc2ccccc2Cl)o1 (configuration not stated) | inactive: -16.6% | –
Fc1cccc(CN2CCc3nc(Nc4ccc5c(c4)OCCO5)ncc3C2)c1F | inactive: -3.07% | –
O=C(CSc1ccc2ccccc2c1)NCCc1ccc(O)c(O)c1 | inactive: -4% | –
O=C(N/N=C\c1ccc(Oc2ccccc2)cc1)c1csnn1 | inactive: 2.66% | –
CCOc1ccc(N/C(N)=N/c2nc(CSc3nnc(C)s3)cc(=O)[nH]2)cc1 | – | inconclusive: 0.447 µM [inhibitor, full curve, poor fit]
CC(=O)Oc1c(I)cc(I)cc1C(=O)Nc1ccc(Cl)cc1 | – | inconclusive: 3.98 µM [inhibitor, single point]
COC(=O)c1[nH]c2ccc(C)cc2c1NC(=O)CN1CCN(Cc2ccccc2)CC1 | – | inconclusive: 12.6 µM [inhibitor, single point]
CCN1CCCC1CNC(=O)c1ccc2c(c1)NC(=O)/C(=C\c1ccc(C)cc1)S2 (configuration not stated) | – | inconclusive: 3.98 µM [inhibitor, partial curve, poor fit]
CC(C)n1cc(/C=N/NC(=O)COc2cccc3cccnc23)c2ccccc21 | – | inconclusive: 28.2 µM [inhibitor, single point]
Cc1ccc(NC(=O)c2cc(S(=O)(=O)N3CCOCC3)cs2)cc1 | – | inconclusive: 8.91 µM [inhibitor, partial curve, poor fit]
COc1ccc(NC(=O)C2Cc3c(-c4cccc(C(C)=O)c4)ccnc3O2)cn1 (configuration not stated) | – | inconclusive: 0.891 µM [inhibitor, full curve, poor fit]
CCOc1ccc(NC(=S)NN(C)C(=S)Nc2ccc(OCC)cc2)cc1 | – | inconclusive: 28.2 µM [inhibitor, single point]
Cn1c(=O)c2c(ncn2CC(=O)OCC(=O)Nc2ccccc2Cl)n(C)c1=O | – | inconclusive: 0.447 µM [inhibitor, full curve, poor fit]
C=CCNC1=C(Cl)C(=O)c2ccccc2C1=O | – | inconclusive: 28.2 µM [inhibitor, single point]
N#C/C(=N\Nc1c(Cl)cccc1Cl)C(=O)NN | inactive: -30% | –
CC(C)CC(=O)N1CC=CC[C@@H](c2ccc(Cl)cc2)N(Cc2ccc(Cl)cc2)C(=O)[C@@H]1Cc1ccccc1 | inactive: -0.799% | –
Cc1cc2c([nH]c3ccccc32)c(C)n1 | inactive: 6.06% | –
COc1ccc(NC(=O)CN2CCCC2)cc1 | inactive: 0.757% | –

Structure (SMILES) | activity change, negative = inhibition | Potency
CC(C)Cc1ccc(C(C)C(N)=Nc2ccc(O)cc2)cc1 (configuration not stated) | – | inconclusive: 28.2 µM [inhibitor, single point]
CC1(C(=O)NCCC(F)(F)F)Cc2c(-c3ccccc3)ccnc2O1 (configuration not stated) | – | inconclusive: 11.2 µM [inhibitor, partial curve, poor fit]
CC1=NN(Cc2ccccc2)C(=O)C1C(c1ccc(Cl)cc1)C(C#N)C#N (configuration not stated) | inactive: -27.9% | –
CNc1oc(-c2ccccc2)nc1C#N | inactive: -9.72% | –
Cc1cc(NS(=O)(=O)c2ccc(NC(=O)COc3ccccc3C(C)C)cc2)no1 | – | inconclusive: 6.31 µM [inhibitor, partial curve, poor fit]
O=C(C(=O)c1cc(Br)ccc1O)c1cc(Br)ccc1O | – | inconclusive: 3.98 µM [inhibitor, partial curve]
Cc1ccc(S(=O)(=O)Nn2c(O)c(C=C3N=c4ccccc4=N3)sc2=S)cc1 | – | inconclusive: 15.8 µM [inhibitor, partial curve, poor fit]
O=C(COc1ccccc1[N+](=O)[O-])Nc1ccc(NC(=O)c2cc3ccccc3o2)cc1 | inactive: -20.7% | –
CCc1ccc(NC(=O)C2CCCN(S(=O)(=O)c3ccc4[nH]c(=O)ccc4c3)C2)cc1 (configuration not stated) | – | inconclusive: 20 µM [inhibitor, single point]
CN(C(=S)NC(=O)c1ccc(F)cc1)C1CCCCC1 | – | inconclusive: 5.01 µM [inhibitor, full curve, poor fit]
COC(=O)c1ccc2ccn(CC(=O)NC3CCCCC3)c2c1 | inactive: -10.5% | –
CC(=O)Nc1ccc(Nc2nc(-c3c(C)nc4ccccn34)cs2)cc1 | – | inconclusive: 11.2 µM [inhibitor, partial curve]
Cc1cccc(OCCn2c(=S)[nH]c3ccccc32)c1 | – | inconclusive: 28.2 µM [inhibitor, single point]
Cc1ccc(S(=O)(=O)/N=C2\C=C(NS(=O)(=O)c3ccccc3)C(=O)c3ccccc32)cc1 | – | inconclusive: 11.2 µM [inhibitor, single point]
Cc1cc(C)nc(N/N=C/c2ccccc2OCc2ccccc2)n1 | – | inconclusive: 28.2 µM [inhibitor, single point]
CCCN(Cc1ccc(N(CC)CC)cc1)CC1CC1 | – | inconclusive: 1.41 µM [inhibitor, full curve, poor fit]
CN(CC(=O)Nc1ccc(Cl)cc1)C(=O)c1ccc(COc2ccccc2)cc1 | – | inconclusive: 12.6 µM [inhibitor, partial curve, poor fit]
COc1cc2c(c(OC)c1OC)-c1ccc(NCc3ccccc3)c(=O)cc1C(NC(C)=O)CC2 (configuration not stated) | – | inconclusive: 1.26 µM [inhibitor, full curve, poor fit]
COC(=O)c1sc(S(=O)(=O)N2CCN(c3ccccc3F)CC2)c(C(=O)OC)c1C | – | inconclusive: 11.2 µM [inhibitor, single point]
COc1ccc(OC)c(Nc2nc3ccccc3nc2-n2nc(C)cc2C)c1 | inactive: 28.7% | –
Cc1ccc(O)c(NC(=O)c2cc(-c3ccco3)on2)c1 | – | inconclusive: 2.51 µM [inhibitor, partial curve, poor fit]
Cc1ccc(S(=O)(=O)Nc2cccc(C(=O)NCC3(N4CCCCC4)CCCCC3)c2)cc1F | inactive: -26.5% | –
CCOC(=O)c1cccc(NC(=O)CCc2c(C)nn(-c3ccc(N4CCCCC4)nn3)c2C)c1 | inactive: -0.635% | –
Cc1ccc(C(=O)N(CC(=O)Nc2sc(C)c(C)c2C(N)=O)C2CCCC2)cc1 | – | inconclusive: 28.2 µM [inhibitor, single point]

Structure (SMILES) | activity change, negative = inhibition | Potency
Cc1cc(Cl)ccc1NC(=S)NCc1ccccc1Cl | – | inconclusive: 31.6 µM [inhibitor, single point]
O=[N+]([O-])c1cccc(C=NNC(=S)NC23CC4CC(CC(C4)C2)C3)c1 | – | inconclusive: 3.98 µM [inhibitor, full curve, poor fit]
O=[N+]([O-])c1ccc(Nc2ccccc2)nc1 | – | inconclusive: 28.2 µM [inhibitor, single point]
CCOc1ccccc1NC(=S)NC(=O)CCCOc1ccc(Cl)cc1Cl | – | inconclusive: 11.2 µM [inhibitor, single point]
CC1(C)Cc2ccccc2C2=NNC(=O)C2=N1 | – | inconclusive: 10 µM [inhibitor, partial curve, poor fit]
O=C(NCCOc1ccccc1)c1cc([N+](=O)[O-])ccc1N1CCOCC1 | – | inconclusive: 12.6 µM [inhibitor, partial curve]
COc1ccc(-c2csc3ncnc(NCCN4CCOCC4)c23)cc1 | – | inconclusive: 12.6 µM [inhibitor, single point]
Cc1cc(C)nc(SCC(=O)c2ccc(O)c(O)c2)n1 | inactive: 0.181% | –
O=C(/C=C/c1ccco1)NC(=S)Nc1ccccc1N1CCCC1 | – | inconclusive: 28.2 µM [inhibitor, single point]
COc1ccc(Nc2ncc3c(n2)CCN(Cc2sccc2C)C3)c(OC)c1 | inactive: 1.39% | –
CCN(CC)C(=O)CCc1nnc(CCc2c[nH]c3ccccc23)o1 | inactive: -4.39% | –
COc1ccc(NC(=O)c2sc(SC)nc2N)cc1 | – | inconclusive: 0.501 µM [inhibitor, full curve, poor fit]
CCOC(=O)CN1C(=O)N(c2ccc(C)c(C)c2)S(=O)(=O)c2ccccc21 | inactive: -9.61% | –
O=C(CC1SC(=Nc2ccccc2)N(CCc2ccccn2)C1=O)Nc1ccc(F)cc1 (configuration not stated) | inactive: 3.12% | –
CCN(Cc1cc2cc(C)ccc2[nH]c1=O)S(=O)(=O)c1ccccc1 | – | inconclusive: 10 µM [inhibitor, single point]
O=[N+]([O-])c1cccc(COc2ccccc2CN2CCOCC2)c1 | inactive: -0.947% | –
COc1ccc(CCC(=O)Nc2cc(Cl)ccc2OC)cc1 | – | inconclusive: 10 µM [inhibitor, single point]
CC1(C)CC(n2c(NCCO)nc3c(c2=O)C2(CCCC2)Cc2ccccc2-3)CCO1 (configuration not stated) | inactive: -16.3% | –
C=CCNC(=O)c1sc(-c2ccccc2)nc1C | inactive: 7.13% | –
COC(=O)c1sc(NC(=O)c2c(C)noc2C)nc1C | inactive: -11.5% | –
Cc1cccc(NC(=S)NC2CC3C=CC2C3)c1 (configuration not stated) | – | inconclusive: 28.2 µM [inhibitor, single point]
CCOC(=O)CSC1=C(C#N)C(c2ccccc2OCC)C(C#N)C(=O)N1 (configuration not stated) | – | inconclusive: 2.24 µM [inhibitor, full curve, poor fit]
CCN(CC)c1ccc(N=Cc2c(C)[nH]c3ccccc23)cc1 | – | inconclusive: 10 µM [inhibitor, partial curve]
CCn1c(=O)n(CC)c2cc(N3CCCC3)c(NC(=O)c3ccc(C)c([N+](=O)[O-])c3)cc21 | – | inconclusive: 11.2 µM [inhibitor, single point]
